Data reported in PubChem BioAssay AID463173 (ICCB-Longwood Screening Facility, Harvard Medical School, 2010).
The whole screen tested about 52,000 compounds, of which about 4,300 (8.3%) were called active. Cut-off read from the data, not from the text of the source: active = survival mostly below about 52% (no sharp cut-off); inactive = mostly above about 56%. This is one part of the list.

Each compound was assayed on DeltatarO mutant (assay: growth inhibition of S. aureus wild type versus tarO mutant, primary screen, teichoic acid synthesis inhibitors, RN4220, OD600 (AID 463173)). Details: OD600, 18 h, hits give low values; concentration not given here unless noted.

SMILES | survival
COc1ccc(NC(=O)CCc2nc(C3=CCN(Cc4cccc(C)c4)CC3)no2)c(OC)c1 | inactive: 91%
Cc1cc(OCC(=O)N2CCN(CCc3ccncc3)CC2)cc(C)c1Cl | active: 57%
Cc1cccc(-n2c(/C=C\c3cccc(Br)c3)nc3ccccc3c2=O)c1 | inactive: 113%
CCC1(CC)C(=O)NC(=NCc2ccc(OC)cc2)N(C)C1=O | inactive: 90%
CC12CNCC(C)(CN(Cc3ccccc3)C1)C2 | inactive: 85%
Cc1ccc(Cn2cccc(C(=O)Nc3ccc(C)c(Cl)c3)c2=O)cc1 | inactive: 83%
O=C1NC(=O)N(c2ccc3c(c2)OCO3)C(=O)/C1=C/c1ccsc1 | inactive: 97%
Cc1cccc(CNCCc2ccccc2)n1 | inactive: 72%
Cc1ccccc1-c1nc2ccccc2c(=O)n1C | inactive: 93%
Cc1ccc(CNC(=O)CCCn2c(=O)c3sccc3n(CC(=O)Nc3c(C)cccc3C)c2=O)cc1 | inactive: 97%
COc1ccc2c(c1OC)C(=O)OC2C1c2cc3c(cc2CCN1C)OCO3 (stereo not given) | inactive: 69%
CNCC(C)c1ccccc1 (stereo not given) | inactive: 99%
CCc1cc2c(s1)NC(=O)CN=C2c1cccs1 | inactive: 57%
OC1(c2ccc(F)cc2)CC2CCC(C1)N2Cc1nnnn1Cc1ccco1 (stereo not given) | inactive: 96%
C1CCCN(C2CCNCC2)CC1 | inactive: 85%
Cc1nnc(NC(=O)c2cccn(Cc3ccccc3)c2=O)s1 | inactive: 86%
CCCc1nc(SC)ncc1C(=O)Nc1ccc(Cl)cc1C(=O)c1ccccc1 | inactive: 83%
O=C(COc1ccccc1Cl)N1CCN(CCc2ccccn2)CC1 | inactive: 110%
CCOc1ccc(CN(CCc2ccc3c(c2)OCO3)Cc2cccc(Br)c2)cc1 | inactive: 55%
O=C1C=C2C3CCN(CC3)C2CC1 (stereo not given) | inactive: 78%
O=c1c2ccccc2nc(CN2CCOCC2)n1-c1cccc(C(F)(F)F)c1 | inactive: 89%
COc1ccc(NC(=O)CN2C(=O)CN=C(c3ccccc3)c3ccccc32)c(OC)c1 | inactive: 99%
COc1ccccc1CN1CCN(C(=O)COc2cccc(C)c2)CC1 | inactive: 162%
Cc1ccccc1-n1nc(C)c2c1NC(=O)CSC2c1ccccc1C(F)(F)F (stereo not given) | active: 39%
Cc1oc2cc3oc(=O)c(CCC(=O)N4CCCCC4)c(C)c3cc2c1C | inactive: 99%

SMILES | survival
O=C(COc1ccc2ccccc2c1)N1CCN(Cc2ccncc2)CC1 | inactive: 67%
CCOc1ccc(CN(CCc2ccc3c(c2)OCO3)Cc2ccc(CC)cc2)cc1 | inactive: 47%
CCC1CN(C)CCC1(O)c1ccccc1 (stereo not given) | inactive: 81%
OCC1(CO)COC(c2cccnc2)N1 (stereo not given) | inactive: 73%
CCc1nc2ccccc2c(=O)n1-c1cccc(OC)c1 | inactive: 91%
O=C(COc1cc(Cl)ccc1Cl)Nc1ccc(Cl)cc1C(=O)c1ccccc1 | inactive: 69%
Fc1ccccc1CN1CCN(Cc2ccccc2F)CC1 | inactive: 79%
Cc1cccc(CN2CC=C(c3noc(CCC(=O)Nc4ccc(C)c(F)c4)n3)CC2)c1 | inactive: 89%
O=C(COc1ccccc1F)N1CCN(Cc2cc(=O)n3nc(-c4ccccc4Cl)sc3n2)CC1 | inactive: 107%
Cc1ccc2c(c1)C(Cc1nc3ccccc3c(=O)n1-c1ccc(Br)cc1)C(=O)N2 (stereo not given) | inactive: 73%
N#CSCC(=O)N1c2ccccc2CCc2ccccc21 | active: 3%
Cc1ccc(-n2c(=O)[nH]c3ccc(Br)cc3c2=O)cc1 | inactive: 90%
O=C(Cn1ncc2c([nH]c3ccccc32)c1=O)NCCCN1CCN(c2ccccc2)CC1 | inactive: 75% [screened at 18.75 µg/mL (by protocol)]
CCOc1nc(NCc2ccco2)nc(N2CC3CC(C2)c2cccc(=O)n2C3)n1 (stereo not given) | inactive: 97%
COc1ccc(NC2=NCC(C)S2)cc1 (stereo not given) | inactive: 70%
O=C(Nc1ccc(F)c([N+](=O)[O-])c1)c1cccn(Cc2ccccc2)c1=O | inactive: 115%
Cc1cccc(OCC(=O)N2CCN(CCc3ccccn3)CC2)c1 | inactive: 48%
O=C(COc1ccc(C=C2C(=O)NC(=O)NC2=O)cc1)NCC1CCCO1 (stereo not given) | inactive: 70%
CCC(CC)C(=O)NC1CCSC1=O (stereo not given) | inactive: 82%
CC(C)(C)c1nc(N2CCN(C(=O)c3ccco3)CC2)c2nnn(Cc3ccccc3Cl)c2n1 | inactive: 90%
N#CC1=C(N)Oc2c(c(=O)oc3ccccc23)C1Cc1ccccc1 (stereo not given) | inactive: 99%
CCCCCCc1cc(O)c2c(c1)OC(C)(C)C1=C2CCN(C)C1 | inactive: 116%
O=C1NC(=O)N(Cc2ccccc2)C(=O)/C1=C/c1ccc2c(c1)OCO2 | inactive: 100%
CCCOc1ccc(C2SCC(=O)Nc3c2c(C)nn3-c2cccc(C)c2)cc1OC (stereo not given) | active: 41%
CN1C(=O)C(=C/C=C/c2ccccc2)C(=O)N(C)C1=O | inactive: 99%

SMILES | survival
Cc1cccc(Cn2cccc(C(=O)Nc3ccc4c(c3)OCCO4)c2=O)c1 | inactive: 91%
CCN(CC)CCSc1nc2ccccc2c(=O)n1-c1ccc(Cl)cc1 | inactive: 148%
CCOc1ccc(NC(=O)Cn2cc(C(=O)c3ccccc3)c3ccccc32)cc1 | inactive: 63%
CC(C)C12CN3CC(C(C)C)(CN(C1)C3c1ccccn1)C2=O (stereo not given) | inactive: 80%
COC(=O)C1(O)c2ccccc2-c2ccccc21 | inactive: 71%
CN(C)S(=O)(=O)c1ccc(N2CCNCC2)cc1 | inactive: 84%
COc1ccc(C)cc1NC(=O)N(Cc1ccc2c(c1)OCO2)C1CCN(Cc2ccccc2)CC1 | inactive: 94%
CCOc1ccc(CN(CCc2ccc3c(c2)OCO3)Cc2cccc(OC)c2)cc1 | inactive: 44%
Cc1cccc(-c2nc(CN3C(=O)CN=C(c4ccccc4)c4ccccc43)c(C)o2)c1 | active: -2%
Cc1ccc(-n2c(/C=C\c3ccc(F)cc3)nc3ccccc3c2=O)cc1Cl | inactive: 90%
Cn1c(=O)n(C)c2cc(CNCCc3ccc(F)cc3)ccc21 | inactive: 75%
Cc1ccc2nc(NC(=O)c3cccn(Cc4ccc(Cl)cc4)c3=O)sc2c1 | inactive: 83%
N#CSC12CN3CN(CN(C3)C1)C2 | inactive: 88%
Cc1ccc(Cl)cc1NC(=O)N(Cc1ccc2c(c1)OCO2)C1CCN(Cc2ccccc2)CC1 | inactive: 55%
Cc1ccc(NC(=O)c2cccn(Cc3ccccc3C)c2=O)c(C)c1 | inactive: 89%
O=C(CN1CCC(N2CCCCC2)CC1)N1CCC2(CC1)OCCO2 | inactive: 92%
CSc1nnc(CCN)n1C | inactive: 109%
CC(C)c1nn2c(=O)cc(COC(=O)Cc3ccccc3)nc2s1 | inactive: 80%
CN1C(=O)C(C(=O)O)C2CC1Oc1ccccc12 (stereo not given) | inactive: 110%
O=C1CN=C(c2ccccc2Cl)c2cc(Cl)ccc2N1Cc1cccc(Cl)c1 | inactive: 117%
COc1cccc(-n2c(/C=C/c3ccccc3O)nc3ccccc3c2=O)c1 | active: 4%
Nc1c(C(=O)Nc2ccc(Cl)c(C(F)(F)F)c2)sc2nc3c(cc12)N1CCC3CC1 | active: 4%
COc1ccc(-n2c(/C=C\c3ccccc3F)nc3ccccc3c2=O)cc1OC | inactive: 89%
Cc1ccccc1-n1nc(C)c2c1NC(=O)CSC2c1ccc(N(C)C)cc1 (stereo not given) | active: 43%
CCCCCc1nc2ccccc2c(=O)n1-c1ccc(C)cc1 | inactive: 52%

SMILES | survival
COC(=O)C1=C(N)Oc2cc(C)oc(=O)c2C12C(=O)Nc1ccccc12 (stereo not given) | inactive: 96%
Cc1ccc(CN2C(=O)c3ccccc3Sc3ccc(C(=O)N4CCC5(CC4)OCCO5)cc32)cc1 | inactive: 101%
CC(C)(C)C(=O)c1cn(CC(=O)NCc2ccco2)c2ccccc12 | inactive: 93%
N#CC(C#N)=Cc1sc2ccccc2c1Cl | inactive: 93%
CC1(C)CC(=O)C(C2(O)C(=O)NC(=O)NC2=O)=C(O)C1 | inactive: 70%
Cc1ccccc1Cn1cccc(C(=O)Nc2nc3ccccc3s2)c1=O | inactive: 102%
CCCCc1nn2c(=O)cc(COC(=O)Cc3ccccc3)nc2s1 | inactive: 75%
C=Cc1ccc(Cn2c(C)c(CNCCc3cc(OC)ccc3OC)c(C(=O)O)c2C)cc1 | inactive: 58%
O=C1CSC2N1CCNC21CCCCC1 (stereo not given) | inactive: 95%
CN1CCCC(C(=O)c2ccccc2)C1 (stereo not given) | inactive: 99%
Cc1cc(C=C(C#N)C#N)c(C)n1C1CCCC1 | inactive: 64%
O=C(Nc1cc(C(F)(F)F)cc(C(F)(F)F)c1)c1cccn(Cc2ccccc2Cl)c1=O | inactive: 73%
COc1cc(NC(=O)CN2C3CCC2CC(O)(c2cccnc2)C3)cc(OC)c1 (stereo not given) | inactive: 102%
CC(C)(C)c1ccc(C(=O)Nc2ccc(Cl)cc2C(=O)c2ccccc2)cc1 | active: 6%
c1cc2c(cc1N1CCNCC1)OCCO2 | inactive: 90%
O=C(COc1ccc(Cl)cc1)Nc1ccc(Cl)cc1C(=O)c1ccccc1 | inactive: 83%
Cc1c(C(c2ccc(F)cc2)c2c(O)c3ccccc3oc2=O)c(=O)n(-c2ccccc2)n1C (stereo not given) | inactive: 89%
O=C1CC(c2c(F)cccc2Cl)c2c(c3ccccc3oc2=O)O1 (stereo not given) | inactive: 68%
CC(=O)N1CC(=O)Nc2ccc(F)cc2C1c1ccccc1 (stereo not given) | inactive: 81%
CCC12CN3CC(CC)(CN(C1)C3c1ccccn1)C2=O (stereo not given) | inactive: 75%
CN=Cc1c(O)[nH]c(=O)[nH]c1=O | inactive: 85%
CCCSc1nc2ccccc2c(=O)n1-c1ccccc1OC | active: -2%
Cc1cc(C)cc(-n2c(=O)[nH]c3ccccc3c2=O)c1 | inactive: 65%
CC1=NN(c2ccccc2)C(=O)/C1=C\c1c(O)[nH]c(=O)[nH]c1=O | inactive: 69%
COCc1c(CN)cnc(C)c1N | inactive: 75%
